Laboratory results from the supplement of paper PMC7826260.
This is one part of the list. Viral Rep nickase domains cut single-stranded DNA in vitro at 3 µM enzyme and 37 °C for 1 h; the strands have 90 letters, of which the middle is given. Numbers give uncut DNA relative to the enzyme-free pool, as log2; strong cutting gives strongly negative numbers. There is no active / inactive call. Because reads are shares of a total, they shift together; uncut strands gain when others are lost, and binding without cutting may add a little.

What was measured:
Assay in all cases: uncleaved DNA left, log2 of reads against the no-enzyme library (log2 ratio); higher = less cleavage (more negative = more Rep cleavage of the k-mer); sequences stand for … in CTCGTCCG…ACCGGAGA
[1] = system: T1, Rep nickase domain of Muscovy duck circovirus
T1 sequence (residues 1-111 of Rep, tag left off): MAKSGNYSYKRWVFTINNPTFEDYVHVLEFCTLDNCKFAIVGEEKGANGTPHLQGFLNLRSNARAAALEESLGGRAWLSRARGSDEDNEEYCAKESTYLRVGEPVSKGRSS
Protocol: (§1)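 A pool of 90-nt single-stranded DNAs with seven random bases just before the constant AC of the nick site (name = the seven bases) was cut by 3 µM recombinant His6-SUMO-tagged Rep nickase domain (300 nM DNA, 50 mM HEPES pH 8.0, 50 mM NaCl, 1 mM MnCl2, 1 h, 37 °C, three replicates). Uncut DNA was amplified and sequenced.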

[2] = system: T2, Rep nickase domain of banana bunchy top virus
T2 sequence (residues 1-94 of Rep, tag left off): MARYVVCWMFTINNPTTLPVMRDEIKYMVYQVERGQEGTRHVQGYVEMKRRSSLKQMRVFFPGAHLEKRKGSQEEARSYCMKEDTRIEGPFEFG
Protocol: as §1

[3] = system: T3, Rep nickase domain of cabbage leaf curl virus
T3 sequence (residues 1-116 of Rep, tag left off): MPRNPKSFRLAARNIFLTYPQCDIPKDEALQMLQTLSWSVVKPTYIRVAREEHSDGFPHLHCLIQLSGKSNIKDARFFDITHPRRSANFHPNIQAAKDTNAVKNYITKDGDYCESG
Protocol: as §1

[4] = system: T4, Rep nickase domain of chickpea chlorotic dwarf virus
T4 sequence (residues 1-124 of Rep, tag left off): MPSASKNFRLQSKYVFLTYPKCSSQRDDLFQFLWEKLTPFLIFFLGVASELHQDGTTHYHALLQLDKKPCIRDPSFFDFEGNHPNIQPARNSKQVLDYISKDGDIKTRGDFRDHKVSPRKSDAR
Protocol: as §1

[5] = system: T5, Rep nickase domain of faba bean necrotic yellows virus
T5 sequence (residues 1-98 of Rep, tag left off): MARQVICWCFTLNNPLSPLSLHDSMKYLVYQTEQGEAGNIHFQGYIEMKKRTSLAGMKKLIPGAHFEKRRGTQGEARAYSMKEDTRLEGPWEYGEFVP
Protocol: as §1

[6] = system: T6, Rep nickase domain of maize striate mosaic virus
T6 sequence (residues 1-117 of Rep, tag left off): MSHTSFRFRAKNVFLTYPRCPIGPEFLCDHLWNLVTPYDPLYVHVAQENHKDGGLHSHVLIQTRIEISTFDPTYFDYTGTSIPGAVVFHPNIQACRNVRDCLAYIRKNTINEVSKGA
Protocol: as §1

[7] = system: T7, Rep nickase domain of porcine circovirus 2
T7 sequence (residues 2-116 of Rep, tag left off): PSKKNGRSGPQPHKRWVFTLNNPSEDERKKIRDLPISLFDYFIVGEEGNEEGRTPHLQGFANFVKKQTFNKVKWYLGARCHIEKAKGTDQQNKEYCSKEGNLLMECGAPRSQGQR
Protocol: as §1

[8] = system: T8, Rep nickase domain of tomato yellow leaf curl virus
T8 sequence (residues 1-136 of Rep, tag left off): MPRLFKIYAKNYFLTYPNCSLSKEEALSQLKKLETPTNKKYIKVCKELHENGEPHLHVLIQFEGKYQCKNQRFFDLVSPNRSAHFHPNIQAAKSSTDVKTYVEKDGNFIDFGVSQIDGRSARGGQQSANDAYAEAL
Protocol: as §1

[9] = system: T9, Rep nickase domain of wheat dwarf virus
T9 sequence (residues 1-137 of Rep, tag left off): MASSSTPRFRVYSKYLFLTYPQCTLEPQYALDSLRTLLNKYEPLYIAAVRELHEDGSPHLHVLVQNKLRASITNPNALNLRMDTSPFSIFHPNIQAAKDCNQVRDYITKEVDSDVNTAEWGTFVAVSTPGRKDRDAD
Protocol: as §1

Row | Sequence | uncleaved DNA left (log2) [1] | uncleaved DNA left (log2) [2] | uncleaved DNA left (log2) [3] | uncleaved DNA left (log2) [4] | uncleaved DNA left (log2) [5] | uncleaved DNA left (log2) [6] | uncleaved DNA left (log2) [7] | uncleaved DNA left (log2) [8] | uncleaved DNA left (log2) [9]
1 | ATCCTGA | 0.0567 | 0.106 | 0.294 | 1.02 | 0.0537 | 0.963 | 0.142 | 0.06 | 0.0244
2 | GTCGTTA | -0.0855 | -0.0365 | 0.151 | 0.618 | -0.0293 | 1.53 | -0.0797 | -0.0253 | -0.0226
3 | CGCGACA | -0.0524 | -0.0323 | 0.137 | 0.562 | -0.0147 | 1.04 | 0.11 | -0.0426 | 0.0419
4 | AAGGAGG | 0.111 | 0.128 | 0.08 | 0.558 | 0.195 | -0.188 | 0.304 | -0.123 | 0.192
5 | ATCTTAG | -0.0442 | 0.0461 | -0.718 | -0.316 | 0.0635 | -1.15 | 0.318 | 0.0653 | 0.0216
6 | CATGAAT | 0.0888 | 0.07 | -0.0924 | -0.887 | -0.00303 | -0.105 | -0.26 | -0.114 | 0.00944
7 | GAGAGCC | 0.0566 | 0.114 | 0.315 | 0.801 | 0.041 | 0.575 | -0.0507 | 0.153 | 0.182
8 | TGCTTAT | -0.259 | -0.0328 | 0.197 | -0.456 | 0.0419 | -0.429 | -1.14 | -0.0478 | 0.0227
9 | CTATACC | -0.138 | -0.0959 | -0.112 | -1.54 | -0.094 | -0.577 | -0.822 | -0.147 | -0.0671
10 | CTCAGTC | 0.0134 | 0.0842 | 0.0312 | -0.168 | 0.137 | -0.856 | 0.031 | 0.0172 | -0.0532
11 | GAACAGT | 0.0701 | 0.151 | 0.768 | 1.27 | 0.0188 | 1.79 | 0.288 | 0.0607 | 0.21
12 | GACCCCC | -0.129 | -0.0211 | 0.436 | 0.669 | 0.0313 | 1.01 | -0.29 | -0.0904 | -0.0589
13 | TAATATA | -2.22 | -0.0746 | -3.24 | -3.05 | -0.0485 | -2.26 | -2.13 | -0.0855 | -3.09
14 | AACGGCA | 0.0658 | -0.0117 | -0.107 | -0.437 | -0.0731 | -0.53 | -0.291 | 0.0379 | 0.0458
15 | AGGCGAT | 0.0991 | 0.0607 | 0.289 | 1.54 | -0.0345 | 1.79 | 0.235 | -0.186 | 0.03
16 | TGGGTTA | 0.0665 | 0.0165 | 0.491 | 0.889 | -0.0465 | 1.65 | -0.0326 | -0.0447 | 0.0181
17 | GTCGAAG | -0.153 | 0.0281 | 0.183 | 0.713 | -0.0138 | 1.66 | 0.061 | 0.00713 | -0.0229
18 | CGCAAAA | 0.212 | 0.225 | 0.0122 | 0.0288 | 0.119 | -0.445 | 0.0436 | 0.0732 | 0.129
19 | TTATAGA | 0.215 | 0.0674 | 0.0973 | -0.0864 | 0.0791 | -0.707 | 0.0962 | 0.113 | 0.0799
20 | ACTTTAC | -0.1 | -0.104 | -0.469 | -2.09 | -0.12 | -1.17 | -0.0203 | -0.274 | -0.12
21 | AATGTTA | 0.0635 | 0.0688 | -0.234 | -1.33 | 0.0893 | -0.247 | -0.12 | 0.0482 | -0.0641
22 | CGTAGTC | 0.0939 | -0.0989 | 0.189 | 0.26 | 0.0575 | -0.277 | 0.0854 | 0.0467 | 0.0469
23 | CAAGGGC | 0.00137 | 0.0232 | 0.0327 | 0.26 | -0.0666 | -0.379 | -0.0527 | -0.0612 | -0.0779
24 | GACTCCT | -0.706 | -0.854 | -0.0685 | -2.29 | -0.139 | 0.594 | -2.82 | -0.134 | 0.0496
25 | TGTGCGA | -0.118 | -0.0905 | -0.811 | -0.0462 | -0.0258 | -0.822 | 0.0323 | 0.0317 | -0.0875
26 | GGCCTTG | 0.0486 | 0.137 | 0.237 | 0.626 | 0.125 | 1.34 | 0.205 | -0.00515 | 0.114
27 | ACACAGA | 0.143 | 0.112 | -0.209 | -0.196 | 0.137 | -1.01 | 0.202 | 0.0145 | 0.139
28 | TACGGAA | 0.135 | 0.0783 | 0.331 | 0.593 | 0.166 | 0.874 | 0.182 | 0.0517 | 0.122
29 | TCGAGTG | 0.205 | 0.0711 | 0.206 | 0.71 | 0.112 | 1.23 | 0.112 | -0.0164 | 0.0974
30 | ACAACTG | 0.0408 | 0.08 | -0.319 | -0.0283 | 0.00972 | -0.318 | 0.104 | -0.0199 | 0.0791
